Experimental data published in PMC6441142.
Results are given in words; binding and its absence hold for the method and conditions named. For some assays here: In cells and extracts the contact can be indirect. Some results given as binding are weak or reduced against the parent protein; the word gives no strength.

The chains behind the UniProt entries cited, without tags or fusion partners. Residues count along the entry.
UniProt Q9JHS3: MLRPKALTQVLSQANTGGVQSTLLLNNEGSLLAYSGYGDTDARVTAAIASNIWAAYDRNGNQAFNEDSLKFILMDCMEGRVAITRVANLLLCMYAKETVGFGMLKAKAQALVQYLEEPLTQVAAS
UniProt P02545, residues 1-646: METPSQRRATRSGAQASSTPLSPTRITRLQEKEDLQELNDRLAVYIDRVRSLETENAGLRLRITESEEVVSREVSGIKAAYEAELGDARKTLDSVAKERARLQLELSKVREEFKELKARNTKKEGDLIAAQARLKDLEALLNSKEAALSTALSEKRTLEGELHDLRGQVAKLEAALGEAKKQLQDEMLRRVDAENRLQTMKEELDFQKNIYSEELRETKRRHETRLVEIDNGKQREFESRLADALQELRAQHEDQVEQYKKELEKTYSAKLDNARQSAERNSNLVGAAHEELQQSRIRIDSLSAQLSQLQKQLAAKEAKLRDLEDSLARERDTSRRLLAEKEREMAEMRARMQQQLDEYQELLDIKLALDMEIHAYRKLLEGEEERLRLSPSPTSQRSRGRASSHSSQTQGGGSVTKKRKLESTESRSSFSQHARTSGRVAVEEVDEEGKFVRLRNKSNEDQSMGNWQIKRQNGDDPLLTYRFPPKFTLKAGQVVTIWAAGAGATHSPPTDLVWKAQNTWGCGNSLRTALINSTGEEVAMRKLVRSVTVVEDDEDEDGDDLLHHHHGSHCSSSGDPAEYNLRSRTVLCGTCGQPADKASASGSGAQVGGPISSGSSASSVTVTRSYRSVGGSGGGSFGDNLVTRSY

B1: Copz1 (protein, UniProt P61924 1-177)
chain: MEALILEPSLYTVKAILILDNDGDRLFAKYYDDTYPSVKEQKAFEKNIFNKTHRTDSEIALLEGLTVVYKSSIDLYFYVIGSSYENELMLMAVLNCLFDSLSQMLRKNVEKRALLENMEGLFLAVDEIVDGGVILESDPQQVVHRVALRGEDVPLTEQTVSQVLQSAKEQIKWSLLR
B2: ζ1-COP-VC155 (protein, UniProt P61924 1-177)
chain: MEALILEPSLYTVKAILILDNDGDRLFAKYYDDTYPSVKEQKAFEKNIFNKTHRTDSEIALLEGLTVVYKSSIDLYFYVIGSSYENELMLMAVLNCLFDSLSQMLRKNVEKRALLENMEGLFLAVDEIVDGGVILESDPQQVVHRVALRGEDVPLTEQTVSQVLQSAKEQIKWSLLR

Tests used:
PRA1-VN173 (mouse) = PRA1-VN173 (mouse) (UniProt Q9Z0S9); experiment: split reporter; BiFC with Venus halves VN173 and VC155 in co-transfected COS-7 cells; confocal images 48 h after transfection
[1] = biological target: LexA-VP16-CUB-PRA1 (mouse) (UniProt Q9Z0S9); experiment: two-hybrid; split-ubiquitin yeast two-hybrid screen (DUALmembrane) in S. cerevisiae NMY51; bait LexA-VP16-CUB-PRA1 against a normalized adult mouse brain NUBG-X cDNA library; growth on SD-TRP-LEU-HIS-ADE at 30 °C; hits re-transformed into fresh bait strain and plated on dropout media to confirm

| Molecule | binding (PRA1-VN173 (mouse)) | binding [1] |
| --- | --- | --- |
| LAMTOR2-VC155 (from UniProt Q9JHS3 1-125) | binds | – |
| Lamin-A-VC155 (from UniProt P02545 1-646) | no binding | – |
| Lamtor2 (from UniProt Q9JHS3 1-125) | – | binds |
| B1 | – | binds |
| B2 | binds | – |
